Out of some 48,000 compounds screened, about 450 (0.94%) were called active. Another 19% or so got no clear call; they are omitted. Calls come from the whole dose curve; as a rule, active = well fitted inhibition curve with a large enough effect; inconclusive = small, poorly fitted or top-dose-only effect; inactive = no such curve, though single readings can be large or run the other way. Some of the results follow.
Experiment: Primary qHTS for Identification of Small Molecule Inhibitors of Huntingtin Promoter Activity; note: nearly all actives have a fitted effect of over 50% in size
Details: HEK293 HTT promoter firefly luciferase reporter (activity 0% = vehicle and -100% = no light), 24 h; series mostly up to 57.5 µM; activity change, negative = inhibition: at the top concentration
How it was run: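 HEK293 cells carrying firefly luciferase reporters were seeded at 2,500 per well in Opti-MEM and cultured for 24 h. They were then treated with compounds at up to 57.5 uM final for 24 h at 37 degrees C before Dual-Glo luminescence readout.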
Potency is the fitted concentration of half-maximal effect.

Activity change, negative = inhibition, inactive:
CCNC(=O)N1CCN(CCCC(c2ccc(F)cc2)c2ccc(F)cc2)CC1 -16.9%
O=[N+]([O-])c1ccc(C(c2sc3nc(-c4ccco4)nn3c2O)N2CCN(Cc3ccccc3)CC2)cc1 (configuration not stated) 0%
CCOC(=O)c1c(C)[nH]c(C)c1S(=O)(=O)NCC(=O)Nc1cc(Cl)ccc1OC -16.8%
CC(C)C[C@H](CC(=O)O)C(=O)N[C@@H](Cc1c[nH]c2ccccc12)C(=O)N[C@@H](C)c1ccccc1 -0.819%
CC(=O)c1ccc(NC(=O)COc2ccccc2-c2nc(C(C)C)no2)cc1 0.608%
CCOC(=O)C1CCN(S(=O)(=O)c2cc(-c3cc(C)no3)ccc2OC)CC1 -25%
O=C(COc1ccccc1)Nc1nnc2n1CCS2 6.86%
Cc1ccc(NC(=O)C(Cc2ccccc2)NS(=O)(=O)c2ccc3c(c2)oc(=O)n3C)cc1C (configuration not stated) -16%
CC(C)(C)C(=O)Cn1c(=O)n(CCCCCC(=O)NCc2ccccc2Cl)c(=O)c2sccc21 -28.3%
COc1cc(OC)cc(-c2nc3nc(C)c(CCC(=O)Nc4ccccc4)c(C)n3n2)c1 -10.2%
CC(=O)c1ccc(N2CCN(C(=O)Nc3cn(CC(C)C)c(=O)c4ccccc34)CC2)cc1 2.15%
Cc1ccc(C)c(NC(=O)CSc2nnc(NC(=O)Nc3ccccc3)s2)c1 -8.06%
CCN1CCN(Cc2nc3cc(NC(=O)c4cccc([N+](=O)[O-])c4)ccc3n2CC)CC1 -7.36%
CCc1ccc(NC(=O)Cn2c(C(=O)OC)cc3oc(C)cc32)cc1 -26.9%
CCCCCCC(=O)Nc1cc2nc3c(nc2cc1C)c(=O)n(C)c(=O)n3C 11.4%
CCc1ccc(C2CC(=O)c3c([nH]c(C(=O)OC4CCCCCC4)c3C)C2)cc1 (configuration not stated) -3.68%
COc1ccc(NC(=O)CN2CCN(C3CCCCC3)C(=O)C2=O)cc1 0.748%
CCOC(=O)c1c(-c2ccc(Br)cc2)csc1NC(=O)c1ccc(C(C)(C)C)cc1 -11.1%
Cc1ccc(CNC(=O)c2cc(=O)c3cc(C)c(C)cc3o2)cc1 -10.6%
CC1CCCCN1Cc1c(O)ccc2c(=O)c(-c3ccc(Cl)cc3)coc12 (configuration not stated) 29.5%
COc1ccc(NC(=O)c2cc(=O)c3cc(C)cc(C)c3o2)cc1 5.11% [at 11.5 µM]
COc1ccc(NC(=O)c2cc3c(=O)n(C)c4cc(Cl)ccc4c3s2)cc1Cl -4.05%
Cc1ccc(CCNC(=O)c2oc(=O)c3ccccc3c2-c2ccc(C)cc2)cc1 -19.5%
CC1CCN(S(=O)(=O)c2ccc3c(ccc(=O)n3CC(=O)NCc3ccccc3)c2)CC1 -21.3%
CCCS(=O)(=O)c1nc(S(=O)(=O)c2ccc(C)cc2)c(NCC(C)C)s1 -21.4%
CCC(=O)Nc1ccc(C)cc1-c1nc2ccccc2n(CC(=O)c2ccc(C)cc2)c1=O 1.63%
CC(C)(C)OC(=O)N1CCC(c2c(C(=O)NCc3ccco3)cnn2-c2ccc(F)cc2F)CC1 -6.32%
CCCCNC(=O)Cn1c(=O)cc(C)c2c(C)nn(-c3cccc(Cl)c3C)c21 -16.9%
CCOC(=O)c1c(C)c(C(=O)NCc2ccc(Cl)cc2)c(C)n1C -5.88%
COc1ccccc1NC(=O)C1=C(C)Nc2nc(-c3ccco3)nn2C1c1cccc(C)c1 (configuration not stated) -27.3%
CCc1ccc(-n2c(=O)c3c(C)c(C(=O)N(C)C)sc3n(CC(=O)Nc3cc(Cl)ccc3C)c2=O)cc1 25.5%
Cc1ccc(-c2noc(-c3ccc(NC4CCCC4)c([N+](=O)[O-])c3)n2)cc1 -2.8%
CC(C)(C)OC(=O)N1CCC(c2nnc(SCc3ccccc3Cl)o2)CC1 -32.3%
COc1ccc(Cl)cc1NC(=O)C(C)n1c(=O)cc(C(F)(F)F)c2c(C)nn(C)c21 (configuration not stated) -11.9%
Cc1ccc(Cn2ccn(Cc3ccc(C)cc3)c(=O)c2=O)cc1 3.62%
CC1CCc2onc(C(=O)N3CCN(c4ccc(Cl)cc4)CC3)c2C1 (configuration not stated) -12.9%
COc1ccc(N2C(=O)NC(NS(=O)(=O)c3ccc(NC(C)=O)cc3)(C(F)(F)F)C2=O)cc1 (configuration not stated) -18.7% [at 11.5 µM]
CCOc1ccc(CNC(=O)CCCn2nc(C)c3c(C)n(-c4ccc(C)cc4)nc3c2=O)cc1 -22%
CCOC(=O)OC(C)OC(=O)[C@@H]1N2C(=O)[C@@H](NC(=O)[C@H](N)c3ccccc3)[C@H]2SC1(C)C (some centres not stated) -0.85%
CCc1ccc(NC(=O)Cn2cnc3nc4c(cc3c2=O)CCCC4)cc1 -1.7%
CCOC(=O)c1cc2c(=O)n3ccccc3nc2n(CC(C)C)c1=NC(=O)C(C)(C)Oc1ccc(Cl)cc1 -12.8%
Cc1ccc(C)c(N2CCN(C(=O)CCc3c(C)nc4c(c3C)c(=O)n(C)c(=O)n4C)CC2)c1 3.06%
COc1ccccc1CNC(=O)C1CCN(c2ncnc3c2nc2n3CCCCC2)CC1 -14.1%
COc1ccc(C(CNC(=O)c2oc3ccccc3c2C)N2CCCCC2)cc1 (configuration not stated) -10%
CCc1ccc(-n2c3nc(=O)[nH]c(=O)c-3cc3c(C)nn(-c4ccccc4)c32)cc1 -8.84%
Cc1noc(-c2ccc(N3CCCCC3C)c([N+](=O)[O-])c2)n1 (configuration not stated) 38.9%
COc1cc(Cl)c(C)cc1NC(=O)c1c(C)oc2nc(C)nc(N3CCCC3)c12 14.4%
CCc1nnc(NC(=O)CSc2nccn2Cc2ccccc2)s1 -28.5%
Cc1ccc(-c2noc(-c3nnn(CC(=O)Nc4ccc(C)cc4Cl)c3N)n2)cc1 -6.72%
CCC(=O)N1CCc2cc(CNS(=O)(=O)c3ccccc3F)ccc21 29.8%
Cc1cc(C)cc(NS(=O)(=O)c2ccc3[nH]cc(C(=O)N4CCCCC4)c(=O)c3c2)c1 0%
CCOc1ccccc1CNC(=O)c1ccc2c(c1)N(CC)CCS2 -22.7%
COc1cccc(CNC(=O)C(Cc2ccccc2)NS(=O)(=O)c2ccc3c(c2)CCN3C(C)=O)c1 (configuration not stated) -10.6%
Cc1ccc(NC(=O)CCc2nc(-c3ccccc3F)no2)c(C)c1 -10%
CCOc1cc2c(cc1OCC)C(CC(=O)OC)N(C(=O)Nc1cc(C)cc(C)c1)CC2 (configuration not stated) -2.98%
Cc1cccc(OCC(=O)Nc2nnc(S(=O)(=O)N3CCCCCC3)s2)c1 -6.37%
Cc1ccc(-n2nc(C(=O)NC(C)C)c(=O)n(C)c2=O)cc1 -1.45%
COc1cccc(OC(=O)CSc2nnc(-c3ccccc3OC)o2)c1 -10.8%
O=c1cc(CN2CCN(S(=O)(=O)c3ccc(Cl)cc3)CC2)nc2sc(-c3ccccc3F)nn12 -20.2%
CCOc1ccc(NS(=O)(=O)c2ccc3[nH]cc(C(=O)NCc4ccco4)c(=O)c3c2)cc1 -7.65%
Cc1cccc(NC(=O)c2sc3nc4n(c(=O)c3c2C)N=C(c2ccc(F)cc2)CS4)c1C -13.6%
Cc1ccc(C)c(N2CCN(c3nc4ccccc4c4nc(CCn5nc(C)cc5C)nn34)CC2)c1 -1.79%
CO/N=C(\C(=O)N[C@@H]1C(=O)N2C(C(=O)O)=C(CSc3nc(=O)c(O)nn3C)CS[C@H]12)c1csc(N)n1 11.4%
O=C(CSc1nc(-c2ccc(Cl)cc2)nc2c1Cc1ccccc1O2)N1CCCCC1 -6.69%
Cc1ccc(N2C(=O)CS(=O)(=O)C23C(=O)N(Cc2cccc(F)c2)c2ccccc23)cc1Cl (configuration not stated) -28%
COc1ccc(Cl)cc1NC(=O)c1cc2nc(-c3ccc4c(c3)OCO4)cc(C(F)(F)F)n2n1 -2.58%
COC(=O)Cn1c(=O)c2c(nc3n2CCN3c2cccc(C)c2)n(C)c1=O 1.38%
CCCCc1ccc(NC(=O)c2cc3c(=O)n4ccccc4nc3n2C)cc1 4.65%
COc1ccc2nc3sc(C(=O)Nc4ccccc4F)cc3cc2c1 29.8%
COc1ccc(NC(=O)CCCc2nc(-c3ccco3)no2)c(OC)c1 -15.1%
CCN(CC)S(=O)(=O)c1ccc(NC(=O)[C@H](CSCc2ccccc2)N2Cc3ccccc3C2=O)cc1 15.9%
O=C(c1ccco1)N(Cc1cccnc1)c1nc2ccc(F)cc2s1 -12.8%
CCc1ccc(C2C(C(=O)Nc3ccccc3)=C(C)Nc3c(C(=O)Nc4ccc(C)cc4)cnn32)cc1 (configuration not stated) -24.4%
COc1cc(OC)cc(-c2nc3n(n2)C(c2ccccc2F)C(C(=O)Nc2cccnc2)=C(C)N3)c1 (configuration not stated) -26.6%
Cc1ccc(S(=O)(=O)NCC(c2ccc(N(C)C)cc2)N2CCCC2)cc1 (configuration not stated) -8.24%
Cc1cc(C)cc(NC(=O)C2CCCN(c3nnc(C)c4c(C)n(-c5ccccc5)nc34)C2)c1 (configuration not stated) -12.2%
CCOC(=O)C1CCN(C(c2ccccc2)c2c(O)cc(C)n(Cc3ccco3)c2=O)CC1 (configuration not stated) -0.277%
CCc1c(C)c2ccc3c(c2oc1=O)CN(Cc1ccccc1)CO3 -36.4%
COc1ccc(OCC(=O)Nc2nnc(S(=O)(=O)N3CCCCCC3)s2)cc1 -1.16%
Cc1ccc(-n2c(CCC(=O)O)ccc2-c2cccs2)cc1C 12.8%
COc1cc(C2CC(=O)Nc3c2c(=O)[nH]c2nc4ccccc4n32)ccc1O (configuration not stated) -9.43%
CC1(C)C(=O)N(CC(=O)Nc2ccc(Cl)cc2)c2ccccc21 -22.4%
CCC(C)NC(=O)c1cc2c(Cl)nc3ccc(C)cc3c2s1 (configuration not stated) -5.03%
COc1ccc(-c2nn3c(-c4ccc(OC)cc4)nnc3c3ccccc23)cc1 -0.22%
CCc1nn2c(=O)cc(COC(=O)c3ccccc3NC(=O)COc3ccccc3C)nc2s1 -4.08%
Cc1ccc2c(c1)cc(C(=O)Nc1ccccc1C)n2C -5.78%
Cc1ccc(NC(=O)Cn2c(=O)n(Cc3ccccc3)c(=O)c3c(C)c(C)sc32)c(C)c1 -5.79%
CCOC(=O)c1ccc(-n2c(N)c(C(=O)OC)c3nc4ccccc4nc32)cc1 -11.4%
CCc1ccccc1NC(=O)C1=CC(c2ccc(OC)c(OC)c2)=NS(=O)(=O)N1C -28.6%
Cc1cccc(C)c1OCC(=O)NCC1(N2CCOCC2)CCCCC1 -28.1%

Potency, active:
Cc1nc2c(-c3ccccc3)c(C)[nH]n2c(=O)c1Cc1ccc(Br)cc1 12.6 µM
CCC(Cc1ccccc1)NC(=O)c1ccc2nc(N3CCC(C)CC3)sc2c1 (configuration not stated) 1.26 µM

— PubChem BioAssay AID1508623 (National Center for Advancing Translational Sciences (NCATS), 2021)
